Changes are numbered by the printed parent chain. Names may count otherwise. ± gives the standard deviation of the averaged measurements. Laboratory Escherichia coli strains with one amino-acid change in an essential protein, pooled on minimal glucose agar with carbenicillin or gentamicin at twice the control MIC (plus kanamycin and chloramphenicol for the plasmids), 48 h. Fold change of barcode share against drug-free plates; higher = less susceptible. Active = above 20 in both replicates (the paper's putatively resistant). '<' = one read or none on drug, '>' = one read or none on a drug-free plate. Shares are relative, so most strains fall below 1 when a few take over. Listed are strains with at least 15 reads on both drug-free plates, and hits; most hits rest on fewer reference reads. Replicate rank correlation about 0.5. Edits are read from barcodes.
B1: fabA M87Q (protein)
chain: MVDKRESYTKEDLLASGRGELFGAKGPQLPAPNMLMMDRVVKMTETGGNFDKGYVEAELDINPDLWFFGCHFIGDPVMPGCLGLDAQWQLVGFYLGWLGGEGKGRALGVGEVKFTGQVLPTAKKVTYRIHFKRIVNRRLIMGLADGEVLVDGRLIYTASDLKVGLFQDTSAF
B2: fabA W88A (protein)
chain: B1 chain with Q87M, W88A
B3: fabA L90A (protein)
chain: B1 chain with Q87M, L90A
B4: fabA M141A (protein)
chain: B1 chain with Q87M, M141A
B5: fabA M141W (protein)
chain: B1 chain with Q87M, M141W
B6: fabA M141Q (protein)
chain: B1 chain with Q87M, M141Q
B7: fabA M141P (protein)
chain: B1 chain with Q87M, M141P
B8: fabB L9A (protein)
chain: MKRAVITGAGIVSSIGNNQQEVLASLREGRSGITFSQELKDSGMRSHVWGNVKLDTTGLIDRKVVRFMSDASIYAFLSMEQAIADAGLSPEAYQNNPRVGLIAGSGGGSPRFQVFGADAMRGPRGLKAVGPYVVTKAMASGVSACLATPFKIHGVNYSISSACATSAHCIGNAVEQIQLGKQDIVFAGGGEELCWEMACEFDAMGALSTKYNDTPEKASRTYDAHRDGFVIAGGGGMVVVEELEHALARGAHIYAEIVGYGATSDGADMVAPSGEGAVRCMKMAMHGVDTPIDYLNSHGTSTPVGDVKELAAIREVFGDKSPAISATKAMTGHSLGAAGVQEAIYSLLMLEHGFIAPSINIEELDEQAAGLNIVTETTDRELTTVMSNSFGFGGTNATLVMRKLKD
B9: fabB L9W (protein)
chain: B8 chain with A9W

Each protein was assayed against Escherichia coli (laboratory strain) (assay: barcode share on antibiotic plates over drug-free plates; higher = less susceptible). Conditions: antibiotic: carbenicillin; 2× MIC (3.1 µg/mL).
Method: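 A pool of E. coli strains, each edited to carry one amino-acid change in an essential protein, was grown for 48 h on minimal glucose agar with or without antibiotic; strain barcodes were sequenced; mean of two replicates.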
For B1, the “fold change of barcode share” value was 0.277 ± 0.24.
For B2, the “fold change of barcode share” value was 0.44 ± 0.008.
In the case of B3, the “fold change of barcode share” value is reported as 0.594 ± 0.037.
For B4, the “fold change of barcode share” value was 0.339 ± 0.053.
In the case of B5, the “fold change of barcode share” value is reported as 0.432 ± 0.17.
B6 was tested, and the “fold change of barcode share” value was 0.245 ± 0.031.
With B7 the “fold change of barcode share” value was 0.226 ± 0.11.
For B8, the “fold change of barcode share” value was 0.136 ± 0.038.
With B9 the “fold change of barcode share” value was 0.308 ± 0.095.

Same assay, conditions: antibiotic: gentamicin; 2× MIC (MIC 0.45 µg/mL)
For B1, the “fold change of barcode share” value was under 0.014.
With B2 the “fold change of barcode share” value was 0.014 ± 0.005.
For B3, the “fold change of barcode share” value was 0.00621 ± 0.0026.
B4 was tested, and the “fold change of barcode share” value was 0.0211 ± 0.022.
In the case of B5, the “fold change of barcode share” value is reported as 0.0061 ± 0.002.
For B6, the “fold change of barcode share” value was 0.0155 ± 0.019.
In the case of B8, the “fold change of barcode share” value is reported as 1.86 ± 2.1.
For B9, the “fold change of barcode share” value was 0.0845 ± 0.091.
